Out of some 360,000 compounds screened, about 660 (0.18%) were called active. This list was built around the results that the source calls inconclusive (neither active nor inactive); the mix of calls is not that of the screen. Calls come from the whole dose curve; as a rule, active = well fitted inhibition curve with a large enough effect; inconclusive = small, poorly fitted or top-dose-only effect; inactive = no such curve, though single readings can be large or run the other way. Potencies of inconclusive entries are left out as doubtful fits.
Molecular target: Rap guanine nucleotide exchange factor 4 (Homo sapiens) (UniProt Q8WZA2)
Sequence of UniProt Q8WZA2 (Q8WZA2 whole entry, looked up): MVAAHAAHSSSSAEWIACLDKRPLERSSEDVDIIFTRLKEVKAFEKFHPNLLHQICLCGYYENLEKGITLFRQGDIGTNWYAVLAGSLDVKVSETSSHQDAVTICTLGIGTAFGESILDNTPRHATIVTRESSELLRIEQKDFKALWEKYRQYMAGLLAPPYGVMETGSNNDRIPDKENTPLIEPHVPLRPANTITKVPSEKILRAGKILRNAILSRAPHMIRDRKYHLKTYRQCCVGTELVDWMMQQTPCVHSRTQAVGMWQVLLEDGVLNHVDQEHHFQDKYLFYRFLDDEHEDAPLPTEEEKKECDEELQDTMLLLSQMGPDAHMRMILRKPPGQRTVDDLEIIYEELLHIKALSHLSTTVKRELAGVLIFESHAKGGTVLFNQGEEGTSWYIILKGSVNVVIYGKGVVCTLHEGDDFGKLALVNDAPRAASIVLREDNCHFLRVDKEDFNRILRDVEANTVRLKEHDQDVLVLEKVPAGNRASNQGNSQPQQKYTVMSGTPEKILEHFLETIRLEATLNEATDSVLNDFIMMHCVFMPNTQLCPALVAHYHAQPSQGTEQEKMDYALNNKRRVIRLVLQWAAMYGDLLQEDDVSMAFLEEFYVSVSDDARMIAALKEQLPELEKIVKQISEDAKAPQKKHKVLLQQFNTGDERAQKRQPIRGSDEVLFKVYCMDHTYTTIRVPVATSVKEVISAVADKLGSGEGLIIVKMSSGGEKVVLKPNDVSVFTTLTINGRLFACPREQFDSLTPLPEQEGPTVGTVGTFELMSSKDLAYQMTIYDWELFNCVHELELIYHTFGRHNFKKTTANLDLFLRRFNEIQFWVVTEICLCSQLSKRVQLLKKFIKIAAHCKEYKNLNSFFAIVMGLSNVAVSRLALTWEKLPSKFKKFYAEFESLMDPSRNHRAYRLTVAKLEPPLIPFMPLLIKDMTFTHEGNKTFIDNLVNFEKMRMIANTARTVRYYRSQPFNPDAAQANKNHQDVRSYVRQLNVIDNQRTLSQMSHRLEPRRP
Assay: qHTS for Antagonist of cAMP-regulated guanine nucleotide exchange factor 2 (EPAC2): primary screen; note: nearly all actives have a fitted effect of over 45% in size
Conditions: EPAC2 GEF exchange of Rap1B-BODIPY-GDP, fluorescence; activity, negative = inhibition: at 114 µM (top of the series) unless noted
% is set by controls: 0 for no effect and ±100 for the full control effect; potency is the fitted concentration of half-maximal effect; tags give direction and shape of the fitted curve.

How did the Potency turn out when `CC(=O)Nc1ccc(Nc2cc(C(C)C)nc3c(-c4ccccc4)c(C)nn23)cc1` was run?
Its Potency is inconclusive [inhibitor, partial curve].

For `COc1cccc(CN(C)CC(=O)Nc2ccccc2C(=O)Nc2ccccc2)c1`, which activity, negative = inhibition is on record?
The activity, negative = inhibition was inconclusive: -20.9% [inhibitor].

Which Potency does the source give for `CN1C(=O)C2(C(C#N)=C(N)N(c3cc(Cl)cc(Cl)c3)C3=C2C(=O)CC(C)(C)C3)c2ccccc21` (stereo not drawn) here?
Its Potency is inconclusive [inhibitor, partial curve].

With `COc1cc(/C=C(\C#N)C(=O)Nc2ccccc2C(=O)O)cc(Cl)c1OC` as the molecule, how does the Potency read?
Its Potency is inconclusive [inhibitor, full curve].

Which Potency does the source give for `CN1CC=C2C(C#N)=C(N)C(C#N)(C#N)C(c3ccsc3)C2C1` (stereo not drawn) here?
The Potency was “inactive”.

How did the Potency turn out when `O=C(Nc1cc(S(=O)(=O)N2CCOCC2)ccc1N1CCCC1)c1ccc(Cl)cc1` was run?
The Potency was “inactive”.

How did the Potency turn out when `O=C(Nc1ccncc1)c1ccc(Cl)c(S(=O)(=O)N2CCc3ccccc32)c1` was run?
Its Potency is inconclusive [inhibitor, single point].

Which Potency does the source give for `Cc1ccccc1OCC(=O)Nc1ccccc1-c1ccccc1` here?
Its Potency is inconclusive [inhibitor, full curve].

For `CC(=O)Nc1ccc(S(=O)(=O)N2c3ccc(F)cc3CCC2C)cc1` (stereo not drawn), which Potency is on record?
Its Potency is inconclusive [inhibitor, single point].

With `O=S(=O)(c1ccccc1)[C@@]1(c2ccc(Br)cc2)C[C@@H]2ON=C(c3cccc(Br)c3)[C@@H]2C1` as the molecule, how does the Potency read?
The Potency was inconclusive [inhibitor, full curve, poor fit].

For `COc1ccc(C(OCC(O)CNCCc2ccc(S(N)(=O)=O)cc2)c2ccc(OC)cc2)cc1` (stereo not drawn), which Potency is on record?
Its Potency is “inactive”.

For `COc1ccc(N2CCN(C(CNS(=O)(=O)c3ccccc3)c3ccccc3)CC2)cc1` (stereo not drawn), which Potency is on record?
The Potency was “inactive”.

For `CN(C)/C=C(\C(=O)c1ccc(Cl)cc1)c1nnnn1-c1ccc(Cl)cc1`, which Potency is on record?
The Potency was inconclusive [inhibitor, full curve, poor fit].

How did the Potency turn out when `N#Cc1c(Cl)cccc1N1CCCC1` was run?
Its Potency is inconclusive [inhibitor, single point].

For `Cc1cccc(C)c1NC(=S)N(CCN(C)C)C(C)c1ccccn1` (stereo not drawn), which Potency is on record?
Its Potency is inconclusive [inhibitor, single point].

For `O=Cc1ccc(C(=O)OCC(=O)Nc2ccc(F)cc2F)cc1`, which Potency is on record?
The Potency was “inactive”.

How did the Potency turn out when `CC(C)C[C@H]1COCCS(=O)(=O)N1Cc1ccc(Cl)c(Cl)c1` was run?
Its Potency is inconclusive [inhibitor, full curve].

With `COC(=O)C(C(=O)OC)c1ccccc1NC(=O)OCc1ccccc1` as the molecule, how does the Potency read?
The Potency was inconclusive [inhibitor, single point].

From PubChem BioAssay AID720708 (National Center for Advancing Translational Sciences (NCATS), 2013)
